# Results as given in PMC4336329 (PLoS ONE, 2015).
# The campaign covered roughly 310,000 compounds. About 14,000 (4.5%) showed an effect of 50% or more. Effects have a minus sign here. Some of the results follow.
# Target: human ether-à-go-go-related gene (hERG) potassium channel (human, UniProt Q12809)
# Assay: primary screen, population patch clamp on CHO cells stably expressing hERG
# 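Note: peak tail current of the secondary pulse compared with the same well before compound.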
# human ether-à-go-go-related gene (hERG) potassium channel, sequence (Q12809 whole entry, looked up): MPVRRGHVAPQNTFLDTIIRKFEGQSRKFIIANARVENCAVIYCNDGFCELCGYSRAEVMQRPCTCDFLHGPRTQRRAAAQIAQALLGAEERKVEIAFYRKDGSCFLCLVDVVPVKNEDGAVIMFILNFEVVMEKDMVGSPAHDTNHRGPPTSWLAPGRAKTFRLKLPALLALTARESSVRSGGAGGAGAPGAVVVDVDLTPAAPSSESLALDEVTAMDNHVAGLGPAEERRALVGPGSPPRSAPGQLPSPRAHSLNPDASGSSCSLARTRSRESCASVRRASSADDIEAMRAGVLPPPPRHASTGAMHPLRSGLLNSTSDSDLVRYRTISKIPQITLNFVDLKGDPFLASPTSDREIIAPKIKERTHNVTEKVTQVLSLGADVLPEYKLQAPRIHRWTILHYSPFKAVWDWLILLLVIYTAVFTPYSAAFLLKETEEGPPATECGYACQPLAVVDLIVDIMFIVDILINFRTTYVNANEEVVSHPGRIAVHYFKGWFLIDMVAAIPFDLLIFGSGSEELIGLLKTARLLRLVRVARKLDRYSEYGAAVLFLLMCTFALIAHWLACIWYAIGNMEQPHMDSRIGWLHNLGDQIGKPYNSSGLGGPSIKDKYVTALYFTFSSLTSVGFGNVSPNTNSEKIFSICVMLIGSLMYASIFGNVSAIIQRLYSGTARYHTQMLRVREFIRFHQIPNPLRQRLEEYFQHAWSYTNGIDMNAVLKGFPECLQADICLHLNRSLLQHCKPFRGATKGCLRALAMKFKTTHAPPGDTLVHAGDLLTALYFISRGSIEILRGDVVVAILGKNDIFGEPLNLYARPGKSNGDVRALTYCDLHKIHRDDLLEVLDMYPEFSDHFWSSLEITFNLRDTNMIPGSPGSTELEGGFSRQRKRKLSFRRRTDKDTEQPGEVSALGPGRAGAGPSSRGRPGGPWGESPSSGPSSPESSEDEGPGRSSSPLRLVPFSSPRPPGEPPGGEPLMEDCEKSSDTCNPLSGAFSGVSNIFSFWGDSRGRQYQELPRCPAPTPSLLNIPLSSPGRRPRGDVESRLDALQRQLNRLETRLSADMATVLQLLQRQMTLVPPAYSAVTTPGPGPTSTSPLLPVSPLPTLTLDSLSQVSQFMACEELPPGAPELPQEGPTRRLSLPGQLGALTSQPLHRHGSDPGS
row,Compound,"hERG current change (%, negative = inhibition) at 10uM"
1,CSc1nnc2c3ccccc3n(CCc3ccccc3)c2n1,-12.1%
2,O=C(NC1=NCCS1)C1COc2ccccc2O1 (stereo not shown),-6.51%
3,COc1cccc(CN2CC(C(=O)NCCc3ccc(C)s3)CCC2=O)c1 (stereo not shown),-26.5%
4,CCc1ccc(NC(=S)N(Cc2cccc(Br)c2)CC2CCC(C(=O)O)CC2)cc1 (stereo not shown),23.9%
5,Cn1nc(C(=O)NC2CCCN(Cc3ccccc3F)C2)c2ccccc2c1=O (stereo not shown),-41.6%
6,CCc1cccc(NC(=O)CN2C(=O)NC3(CCCCCCC3)C2=O)c1,5.33%
7,COc1ccc(CC(C)NCCC(c2ccccc2)c2ccccc2)cc1 (stereo not shown),-71.5%
8,O=C1C2C3C=CC(C2C(=O)N1C1CCCCC1)C1C(=O)N(C2CCCCC2)C(=O)C31 (stereo not shown),14.7%
9,CC(OC(=O)c1ccccc1C(=O)N(C)C1CCCCC1)C(=O)NC1(C#N)CCCCC1 (stereo not shown),-21.4%
10,CC(=O)O[C@H]1[C@H](C)OC=C[C@@H]1OC(C)=O,9.58%
11,NC(=O)CSc1nccn1Cc1ccccc1,7.57%
12,COC(=O)c1cc(NC2c3ncccc3C(=O)N2Cc2ccccc2)cc(C(=O)OC)c1 (stereo not shown),-9.7%
13,CNS(=O)(=O)c1ccc(N=Cc2c(O)n(-c3cccc(C)c3)c(=O)[nH]c2=O)cc1,14.2%
14,CCOC(=O)c1ccc(NC(=O)N2CCN(c3ccccn3)CC2)cc1,-25.7%
15,O=C(CN1CCOCC1)Nc1ccc([N+](=O)[O-])cc1,0.978%
16,NC(=O)COC(=O)CN1C(=O)C2CCCCC2C1=O (stereo not shown),7.64%
17,CCOC(=O)c1cccnc1SC(CC)C(=O)N1CCOCC1 (stereo not shown),-18.4%
18,O=C(NN1CC(C(=O)OCc2ccc(Br)cc2)CC1=O)c1ccccc1 (stereo not shown),-21.2%
19,Cc1c(C(=O)c2ccc(F)cc2)c2ccccn2c1CCc1ccccn1,-7.16%
20,CC(=O)c1ccc(N2CCN(c3ncc(C(F)(F)F)cc3Cl)CC2)cc1,15.2%
21,CC1CC(C)(C)CC2(C1)NC(=S)N(c1ccccc1)N2 (stereo not shown),17.5%
22,CCCCN1C(=O)C2C(c3ccc(OC)cc3O)NC(CC(C)C)(C(=O)O)C2C1=O (stereo not shown),2.83%

row,Compound,"hERG current change (%, negative = inhibition) at 10uM"
1,COc1ccc(/C=N/c2c(-c3ccc(OC)cc3)nc3n2CCS3)cc1,8.99%
2,O=C1CCc2cc(S(=O)(=O)N3CCC(C(=O)NCc4ccccc4Cl)CC3)ccc2N1,4.83%
3,CC1(c2nnc(Cc3ccccc3)o2)CC(c2cccc([N+](=O)[O-])c2)=NO1 (stereo not shown),-7.45%
4,Nc1nccc(-c2ccc(-n3cccc3)cc2)n1,13.5%
5,COc1ccc(-c2noc3c2-c2nc(-c4cccc(C)c4)sc2CC3)cc1,7.57%
6,COC(=O)CN1C(=O)C(C)(C)Oc2ccc(C(=O)Nc3cccc(OC)c3)cc21,-1.34%
7,Oc1ccc(-c2nc3c4c(ncn3n2)-c2ccccc2CC42CCCC2)cc1,6.37%
8,O=S(=O)(c1cccs1)N1CCN(CCOc2ccc(Cl)cc2)CC1,-34.4%
9,Cc1cccc(NC(=O)CN2CCN(C(=O)CNC(=O)Cc3cccc4ccccc34)CC2)c1C,-57.4%
10,CCOC(=O)c1cc(C)n(Cc2cccc(OC)c2OC)c1C,-14.1%
11,CCOCC(=O)Nc1sc2c(c1C(=O)OCC)CCCC2,-17.6%
12,CCOC(=O)CSc1nnc(-c2ccoc2C)n1-c1ccc(C)cc1,-19.3%
13,CCS(=O)(=O)N1N=C(c2cccc(NS(C)(=O)=O)c2)CC1c1ccc(C)cc1 (stereo not shown),-73.9%
14,CCCCOC(=O)c1ccc(NC(=O)c2cnccn2)cc1,21.4%
15,Cl.O=C(NCCOC(=O)C1COc2ccccc2O1)c1cccnc1 (stereo not shown),15.9%
16,CN(C)CCCN(C(=O)c1ccc(S(=O)(=O)N2CCCCC2)cc1)c1nc2cc3c(cc2s1)OCO3.Cl,-70.4%
17,CCC(C)C(NC(N)=O)C(=O)Nc1ccc(C(=O)OC)cc1 (stereo not shown),16.8%
18,CC1(C)CC[C@]2(CO)[C@@H](O)C[C@]3(C)C(=CCC4[C@@]5(C)CC[C@H](O)C(C)(C)C5CC[C@]43C)[C@@H]2C1 (stereo partly shown),19.4%
19,Cc1ccc(-n2c(C)nn(-c3ncc(C(F)(F)F)cc3Cl)c2=O)cc1,-1.19%
20,C=CCNC(=S)N1CCN(c2ncc3c(=O)c(C(=O)O)cn(CC)c3n2)CC1,2.8%
21,COc1ccc(-c2nnnn2-c2ccc(F)cc2F)cc1,10.7%
